Measured values as given in PMC9911399, “Two distinct binding modes provide the RNA-binding protein RbFox with extraordinary sequence specificity”.
Where a chain is given by its changes, count along the chain named. Some of the results follow.

T1: RBFOX1 RRM RbFoxmut (Fox-RRM*) (Homo sapiens, UniProt Q9NWB1 109-208, R118D;E147R;N151S;E152T)
T1 sequence: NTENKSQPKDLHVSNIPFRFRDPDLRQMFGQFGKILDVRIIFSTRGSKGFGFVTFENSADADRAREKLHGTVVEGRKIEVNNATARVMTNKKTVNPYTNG

B1: CGUAGAG (DNA:RNA)
RNA: GGGAGACCGGAAUUCAGAUUGUCCCGUAGAGUUAAAUCCCGUCGUAGCCACCA
DNA 1: CAATCTGAATTCCGGTCTCCC
DNA 2: TGGTGGCTACGACGGGATT
B2: GGAACCC (DNA:RNA)
RNA: B1 RNA with C25G, U27A, G29C, A30C, G31C
DNA 1: CAATCTGAATTCCGGTCTCCC
DNA 2: TGGTGGCTACGACGGGATT
B3: CUAAAUC (DNA:RNA)
RNA: B1 RNA with G26U, U27A, G29A, A30U, G31C
DNA 1: CAATCTGAATTCCGGTCTCCC
DNA 2: TGGTGGCTACGACGGGATT
B4: UUAGAAA (DNA:RNA)
RNA: B1 RNA with C25U, G26U, U27A, A28G, G29A, G31A
DNA 1: CAATCTGAATTCCGGTCTCCC
DNA 2: TGGTGGCTACGACGGGATT
B5: GACCUCC (DNA:RNA)
RNA: GGGAGACCGGAAUUCAGAUUGUCCGACCUCCUUAAAUCCCGUCGUAGCCACCA
DNA 1: CAATCTGAATTCCGGTCTCCC
DNA 2: TGGTGGCTACGACGGGATT
B6: GAGAGAA (DNA:RNA)
RNA: B1 RNA with C25G, G26A, U27G, G31A
DNA 1: CAATCTGAATTCCGGTCTCCC
DNA 2: TGGTGGCTACGACGGGATT
B7: AGCCUCU (DNA:RNA)
RNA: B5 RNA with G25A, A26G, C31U
DNA 1: CAATCTGAATTCCGGTCTCCC
DNA 2: TGGTGGCTACGACGGGATT
B8: GGGUCGA (DNA:RNA)
RNA: B1 RNA with C25G, U27G, A28U, G29C, A30G, G31A
DNA 1: CAATCTGAATTCCGGTCTCCC
DNA 2: TGGTGGCTACGACGGGATT
B9: CCACUCU (DNA:RNA)
RNA: B5 RNA with G25C, A26C, C27A, C31U
DNA 1: CAATCTGAATTCCGGTCTCCC
DNA 2: TGGTGGCTACGACGGGATT
B10: GGUGAGG (DNA:RNA)
RNA: B1 RNA with C25G, A28G, G29A, A30G
DNA 1: CAATCTGAATTCCGGTCTCCC
DNA 2: TGGTGGCTACGACGGGATT
B11: CCGUGGG (DNA:RNA)
RNA: B1 RNA with G26C, U27G, A28U, A30G
DNA 1: CAATCTGAATTCCGGTCTCCC
DNA 2: TGGTGGCTACGACGGGATT
B12: GGGGCGU (DNA:RNA)
RNA: B1 RNA with C25G, U27G, A28G, G29C, A30G, G31U
DNA 1: CAATCTGAATTCCGGTCTCCC
DNA 2: TGGTGGCTACGACGGGATT
B13: CCCAUGC (DNA:RNA)
RNA: B5 RNA with G25C, A26C, C28A, C30G
DNA 1: CAATCTGAATTCCGGTCTCCC
DNA 2: TGGTGGCTACGACGGGATT
B14: GGUGAUU (DNA:RNA)
RNA: B1 RNA with C25G, A28G, G29A, A30U, G31U
DNA 1: CAATCTGAATTCCGGTCTCCC
DNA 2: TGGTGGCTACGACGGGATT
B15: GUGACCA (DNA:RNA)
RNA: B5 RNA with A26U, C27G, C28A, U29C, C31A
DNA 1: CAATCTGAATTCCGGTCTCCC
DNA 2: TGGTGGCTACGACGGGATT
B16: ACGAGUC (DNA:RNA)
RNA: B1 RNA with C25A, G26C, U27G, A30U, G31C
DNA 1: CAATCTGAATTCCGGTCTCCC
DNA 2: TGGTGGCTACGACGGGATT
B17: UCUUCCU (DNA:RNA)
RNA: B1 RNA with C25U, G26C, A28U, G29C, A30C, G31U
DNA 1: CAATCTGAATTCCGGTCTCCC
DNA 2: TGGTGGCTACGACGGGATT
B18: GGUUAAC (DNA:RNA)
RNA: B1 RNA with C25G, A28U, G29A, G31C
DNA 1: CAATCTGAATTCCGGTCTCCC
DNA 2: TGGTGGCTACGACGGGATT
B19: ACCCGAC (DNA:RNA)
RNA: B5 RNA with G25A, A26C, U29G, C30A
DNA 1: CAATCTGAATTCCGGTCTCCC
DNA 2: TGGTGGCTACGACGGGATT
B20: UAACCCU (DNA:RNA)
RNA: B5 RNA with G25U, C27A, U29C, C31U
DNA 1: CAATCTGAATTCCGGTCTCCC
DNA 2: TGGTGGCTACGACGGGATT
B21: ACUGUGU (DNA:RNA)
RNA: B1 RNA with C25A, G26C, A28G, G29U, A30G, G31U
DNA 1: CAATCTGAATTCCGGTCTCCC
DNA 2: TGGTGGCTACGACGGGATT
B22: AGGAGGA (DNA:RNA)
RNA: B1 RNA with C25A, U27G, A30G, G31A
DNA 1: CAATCTGAATTCCGGTCTCCC
DNA 2: TGGTGGCTACGACGGGATT
B23: GUGCAAC (DNA:RNA)
RNA: B5 RNA with A26U, C27G, U29A, C30A
DNA 1: CAATCTGAATTCCGGTCTCCC
DNA 2: TGGTGGCTACGACGGGATT
B24: CUAUGAG (DNA:RNA)
RNA: B1 RNA with G26U, U27A, A28U
DNA 1: CAATCTGAATTCCGGTCTCCC
DNA 2: TGGTGGCTACGACGGGATT
B25: GGUGUGA (DNA:RNA)
RNA: B1 RNA with C25G, A28G, G29U, A30G, G31A
DNA 1: CAATCTGAATTCCGGTCTCCC
DNA 2: TGGTGGCTACGACGGGATT
B26: CAGGUCG (DNA:RNA)
RNA: B5 RNA with G25C, C27G, C28G, C31G
DNA 1: CAATCTGAATTCCGGTCTCCC
DNA 2: TGGTGGCTACGACGGGATT
B27: CUGGCGC (DNA:RNA)
RNA: B1 RNA with G26U, U27G, A28G, G29C, A30G, G31C
DNA 1: CAATCTGAATTCCGGTCTCCC
DNA 2: TGGTGGCTACGACGGGATT
B28: AGCCCGU (DNA:RNA)
RNA: B5 RNA with G25A, A26G, U29C, C30G, C31U
DNA 1: CAATCTGAATTCCGGTCTCCC
DNA 2: TGGTGGCTACGACGGGATT
B29: UCUGAGU (DNA:RNA)
RNA: B1 RNA with C25U, G26C, A28G, G29A, A30G, G31U
DNA 1: CAATCTGAATTCCGGTCTCCC
DNA 2: TGGTGGCTACGACGGGATT
B30: UCAAUGA (DNA:RNA)
RNA: B1 RNA with C25U, G26C, U27A, G29U, A30G, G31A
DNA 1: CAATCTGAATTCCGGTCTCCC
DNA 2: TGGTGGCTACGACGGGATT
B31: CCGUAAU (DNA:RNA)
RNA: B1 RNA with G26C, U27G, A28U, G29A, G31U
DNA 1: CAATCTGAATTCCGGTCTCCC
DNA 2: TGGTGGCTACGACGGGATT

These binders were tested against T1, RBFOX1 RRM RbFoxmut (Fox-RRM*) (assay: EMSA; HiTS-Eq, 1 nM pool, 10 min; buffer printed only for the single-RNA assays: 10 mM Tris pH 7.5, 150 mM NaCl, 3.4 mM EDTA, 0.001% NP-40, 30 C). Details: tags: His6 N-terminal (pET28a); label: 5' 32P.
Summary of the method: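 Purified wild-type or mutant RbFox RRM at increasing concentrations was equilibrated with 1 nM of 5′-radiolabelled RNA carrying 7 randomized nucleotides for 10 min in 50 µL. Unbound RNA was separated by 8% native PAGE and sequenced. Relative association constants came from read-count changes of each RNA species compared with the control reaction, normalised to the cognate motif.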

Binder | binding signal
B1 | 0.156 KA relative to UGCAUGU
B2 | 0.103 KA relative to UGCAUGU
B3 | 0.0354 KA relative to UGCAUGU
B4 | 0.0704 KA relative to UGCAUGU
B5 | 0.0427 KA relative to UGCAUGU
B6 | 0.0849 KA relative to UGCAUGU
B7 | 0.0693 KA relative to UGCAUGU
B8 | 0.21 KA relative to UGCAUGU
B9 | 0.0917 KA relative to UGCAUGU
B10 | 0.0722 KA relative to UGCAUGU
B11 | 0.084 KA relative to UGCAUGU
B12 | 0.167 KA relative to UGCAUGU
B13 | 0.0771 KA relative to UGCAUGU
B14 | 0.0776 KA relative to UGCAUGU
B15 | 0.0788 KA relative to UGCAUGU
B16 | 0.117 KA relative to UGCAUGU

Binder | binding signal
B17 | 0.0569 KA relative to UGCAUGU
B18 | 0.0607 KA relative to UGCAUGU
B19 | 0.063 KA relative to UGCAUGU
B20 | 0.102 KA relative to UGCAUGU
B21 | 0.165 KA relative to UGCAUGU
B22 | 0.084 KA relative to UGCAUGU
B23 | 0.073 KA relative to UGCAUGU
B24 | 0.107 KA relative to UGCAUGU
B25 | 0.112 KA relative to UGCAUGU
B26 | 0.135 KA relative to UGCAUGU
B27 | 0.095 KA relative to UGCAUGU
B28 | 0.111 KA relative to UGCAUGU
B29 | 0.0662 KA relative to UGCAUGU
B30 | 0.0906 KA relative to UGCAUGU
B31 | 0.0896 KA relative to UGCAUGU
